The campaign covered roughly 310,000 compounds. About 2,200 (0.71%) showed an effect of 50% or more. The effect is printed as a negative number. Some of the results follow.
target: human ether-à-go-go-related gene (hERG) potassium channel (human, UniProt Q12809); assay: primary screen, population patch clamp on CHO cells stably expressing hERG
Sequence (Q12809 whole entry, looked up): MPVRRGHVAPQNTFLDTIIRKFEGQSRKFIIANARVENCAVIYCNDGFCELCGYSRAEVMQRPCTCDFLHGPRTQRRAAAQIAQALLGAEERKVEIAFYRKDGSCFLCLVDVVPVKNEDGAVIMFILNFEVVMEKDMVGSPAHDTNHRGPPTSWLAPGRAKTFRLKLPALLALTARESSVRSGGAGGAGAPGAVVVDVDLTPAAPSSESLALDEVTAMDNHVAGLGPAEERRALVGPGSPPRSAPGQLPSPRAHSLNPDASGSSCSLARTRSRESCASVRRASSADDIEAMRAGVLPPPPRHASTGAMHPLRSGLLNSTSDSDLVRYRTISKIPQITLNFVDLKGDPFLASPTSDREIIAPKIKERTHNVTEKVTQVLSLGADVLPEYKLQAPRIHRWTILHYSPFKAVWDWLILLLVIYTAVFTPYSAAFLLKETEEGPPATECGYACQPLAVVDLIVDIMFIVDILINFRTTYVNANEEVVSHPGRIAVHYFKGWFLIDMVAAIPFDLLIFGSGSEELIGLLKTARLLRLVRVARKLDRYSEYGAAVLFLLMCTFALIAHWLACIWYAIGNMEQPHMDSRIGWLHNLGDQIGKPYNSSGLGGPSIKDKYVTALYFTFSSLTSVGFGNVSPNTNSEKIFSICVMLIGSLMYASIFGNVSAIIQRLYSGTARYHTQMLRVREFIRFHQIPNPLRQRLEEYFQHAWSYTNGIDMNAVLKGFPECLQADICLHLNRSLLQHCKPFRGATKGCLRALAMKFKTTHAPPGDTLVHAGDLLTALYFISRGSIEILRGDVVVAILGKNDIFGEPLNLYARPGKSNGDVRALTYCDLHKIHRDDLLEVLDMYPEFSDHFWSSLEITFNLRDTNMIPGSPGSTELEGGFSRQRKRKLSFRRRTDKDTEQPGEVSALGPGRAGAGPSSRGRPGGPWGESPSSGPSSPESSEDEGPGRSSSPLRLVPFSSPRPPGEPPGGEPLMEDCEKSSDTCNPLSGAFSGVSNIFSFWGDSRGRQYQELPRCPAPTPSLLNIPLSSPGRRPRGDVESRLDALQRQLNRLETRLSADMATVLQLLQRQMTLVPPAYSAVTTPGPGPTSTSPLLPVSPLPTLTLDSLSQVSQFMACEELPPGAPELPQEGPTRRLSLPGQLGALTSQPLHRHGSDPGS

Structure (SMILES)	hERG current change (%, negative = inhibition) at 1uM [%]
O=C(CN1C(=O)C(=O)N(Cc2ccccc2)C1=O)c1ccc[nH]1	5.32
COc1ccc(C2N(C(=O)c3ccccc3)CCN2C(=O)c2ccccc2)cc1	-0.273
CCOc1cc(S(=O)(=O)N2CCCCCC2)ccc1F	-10.4
O=C(CCCn1c(=O)c2sccc2n(Cc2cc(=O)n3ccccc3n2)c1=O)NCc1ccco1	17.3
CCOC(=O)Cn1c(=NC(=O)c2sc3ccccc3c2Cl)sc2cc(S(N)(=O)=O)ccc21	10.9
O=C(c1ccc(COc2ccc3ccccc3c2)o1)N1N=C(C(F)F)CC1(O)C(F)F (stereo not drawn)	1.39
Cn1c(CNC(=O)c2ccc(F)cc2)cc2ccccc21	14.5
CCC(C)NC(=O)C1CCN(S(=O)(=O)N2CCOCC2)CC1 (stereo not drawn)	16.6
CCCCNC(=O)c1ccc2c(=O)n(CCCOCC)c(=S)[nH]c2c1	-6.49
CN1N=C(c2ccc(Cl)cc2)CC(c2ccc(Cl)cc2)C1=O (stereo not drawn)	7.55
COC(=O)[C@@H](NC(=O)N1CCC(Cc2ccccc2)CC1)C(C)C	13.8
CCCCn1nc(C(=O)OCC(=O)Nc2sccc2C(N)=O)c2ccccc2c1=O	9.45
Cc1ccc(C(=O)NC2CC3CCC(C2)N3Cc2ccco2)cc1 (stereo not drawn)	-7.72
COc1ccc(-c2cn(Cc3ccc(C(N)=O)cc3)c(-c3ccncc3)n2)cc1	0.402
CC(=O)N(c1ccc2oc(=O)sc2c1)S(=O)(=O)c1ccc(C(=O)O)cc1	13.7
NC(=O)c1ccc(NC(=O)COC(=O)c2ccc(Br)o2)cc1	1.35
O=C(OCC(=O)N1CCCCCC1)c1ccc(S(=O)(=O)N2CCOCC2)cc1	13.3
Cc1ccc(NC(=O)Nc2ccccc2C(N)=O)cc1	15.6
Cc1cccc(OCC(=O)NCC(=O)N/N=C/c2cc(Br)ccc2OCc2ccccc2)c1	7.06

Structure (SMILES)	hERG current change (%, negative = inhibition) at 1uM [%]
Cc1nn(CC(=O)O)c(C)c1NC(=O)c1cccs1	21.2
COc1ccc(C(=O)N2CCCC(Nc3ccc(C)c(C)c3)C2)c(OC)n1 (stereo not drawn)	6.96
CC(C)c1ccc(NC(=S)Nc2ccc3[nH]c(=O)[nH]c3c2)cc1	13.3
COC(=O)Cc1ccc(NC(=S)N2CCN(C(=O)C3CCCO3)CC2)cc1 (stereo not drawn)	5.7
O=C(NCCN1CCOCC1)c1ccc(Cl)c(S(=O)(=O)N2CCCCC2)c1	10.8
CCC1(O)c2ccccc2-c2ncccc21 (stereo not drawn)	10.6
COc1ccccc1-c1noc(CCC(=O)NC2CCCCC2)n1	14.6
O=C1Nc2ccc(S(=O)(=O)N3CCCCCC3)c3cccc1c23	15.3
COc1cccc(-c2cc(C(=O)N3CCN(Cc4ccccc4)CC3)no2)c1	-4.98
Cc1ccc(N(CN2CCCC2=O)C(=O)c2ccc(C)c(C)c2)cc1	12.4
O=C(NCC(c1ccco1)N1CCCC1)c1ccc(S(=O)(=O)Nc2ccccc2F)cc1 (stereo not drawn)	4.3
CN(C)/C=C/C1=CC(=O)CC(C)(C)C1	17
CC1CCN(C(=O)CCC(=O)N2CC(C)Oc3ccccc32)CC1 (stereo not drawn)	-0.862
COc1ccccc1NS(=O)(=O)c1ccc(C)c(C(=O)NCC2CCCO2)c1 (stereo not drawn)	-14.5
Cc1ccc2nc(NC(=O)C3CCN(S(=O)(=O)c4cccs4)CC3)sc2c1	5.47
O=C(Nc1ccc2oc(-c3cccnc3)nc2c1)c1cccnc1	12.3
COCCNC(=O)C1CCC(CNS(=O)(=O)c2ccc3c(c2)CC(C)N3C(=O)C2CC2)CC1 (stereo not drawn)	-9.28
CC(=O)Oc1ccc(N(C(C)=O)S(=O)(=O)c2cc([N+](=O)[O-])ccc2C)cc1	9.39
CCOc1ccc(C(=O)NNC(=O)CCNC(=O)c2ccc(Br)cc2)cc1OC	6.57

Structure (SMILES)	hERG current change (%, negative = inhibition) at 1uM [%]
COc1ccc(S(=O)(=O)Cc2ccc(C(=O)N3CCN(c4cc(Cl)ccc4C)CC3)o2)cc1	10.6
Cc1cc(C)cc(C(=O)N(C)C2CCCN(Cc3ccccc3F)C2)c1 (stereo not drawn)	8.81
CCn1c(O)c(/C=C/C=C/C=Nc2ccccc2)sc1=S	7.26
COc1ccc(C(=O)NCc2csc(C)n2)cc1OC1CCN(C(C)=O)CC1	12.7
O=C(Nc1nccs1)c1ncc(Cl)c(Cl)c1Cl	19
O=C(NNC(=S)Nc1ccc(F)c(Cl)c1)c1ccccc1Br	7.86
Cc1cc(=O)[nH]c(SCC(=O)NCCC2=CCCCC2)n1	15.4
COc1ccc(/C=N/NC(=O)c2ccc3c(c2)OCO3)cc1	18.5
COc1ccc(OC)c(S(=O)(=O)Nc2ccc(F)cc2)c1	4.35
CC1=C(C(=O)OC(C)C)C(c2ccc(F)cc2)NC(=O)N1 (stereo not drawn)	-2.1
Cc1nc2nc(SCC(=O)N3CCC4(CC3)OCCO4)nn2c(C)c1Cc1ccccc1	-0.97
CC(NS(=O)(=O)c1ccc2c(c1)C(=O)c1cc(S(=O)(=O)NC(C)C(=O)O)ccc1-2)C(=O)O (stereo not drawn)	15.3
O=C(Cc1cccs1)Nc1ccc(Cl)cc1	-2.94
COc1ccc(NC(=O)COc2ccc(Br)cc2)c(OC)c1	8.49
Cc1ccccc1-n1c(O)cc(=O)[nH]c1=S	1.32
CCOC(=O)CSCC(=O)Nc1c(C(=O)C2CC2)oc2ccccc12	-10
O=S(=O)(c1ccccc1)N1CCc2ccccc21	8.01
CC(C)(C)N(Cc1ccccc1)C(=O)c1cc2ccccc2o1	10.5
O=C(CSc1ccc(Cl)cc1Cl)N1CCC(c2nc3ccccc3s2)CC1	13.8

From paper PMC4336329 (PLoS ONE, 2015)
